# Test results taken from PubChem BioAssay AID493208 (National Center for Advancing Translational Sciences (NCATS), 2011).
# The campaign covered roughly 44,000 compounds. About 340 (0.77%) were called active. Not shown: some 5% with an inconclusive outcome. The call rests on the fitted dose curve; in most records, active means well fitted inhibition curve with a large enough effect; inconclusive means small, poorly fitted or top-dose-only effect; inactive means flat fitted curve, though single readings scatter. The list shows a part of the results.
# Experiment: Acumen qHTS Assay for Inhibitors of the mTORC1 Signaling Pathway in MEF (Tsc2-/-, p53-/-) Cells: Sytravon; further: nearly all actives have a fitted effect of over 50% in size;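 on activity change, negative = inhibition: plate controls were DMSO for no effect and rapamycin for full effect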
# Conditions: phospho-rpS6 immunofluorescence/PI, 24 h; series mostly up to 38.3 µM; activity change, negative = inhibition: at the top concentration
# Method in brief: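 Compounds act on Tsc2-/-, p53-/- fibroblasts carrying an empty vector for 24 h before fixation and dual staining for phospho-S6 and DNA (propidium iodide). Values are percentages of cells above a rapamycin-defined pS6/PI threshold.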
# Potency means the concentration at half of the fitted maximal effect.
SMILES,"activity change, negative = inhibition",Potency
CCOC(=O)c1cc(-c2ccccc2)n(CC(=O)NCc2ccc(C)cc2)c1C,inactive: 1.17%,
CCOC(=O)c1c(C)oc2nc(C)nc(NCC3CCN(Cc4ccccc4C)CC3)c12,inactive: -12.7%,
Cc1ccc2nc(-c3cccc(NC(=O)c4cccc5c(Cl)cccc45)c3)oc2c1,inactive: 5.42%,
O=C(NCC(c1cccnc1)N1CCOCC1)C(=O)Nc1ccc(Cl)cc1 (stereo not given),inactive: -0.0425%,
COc1ccc(-c2[nH]ncc2C(=O)NCc2cccc(Cl)c2)cc1,inactive: 1.15%,
COc1ccc(C)cc1NC(=O)Cn1cc(S(=O)(=O)Cc2ccccc2Cl)c2ccccc21,inactive: -2.63%,
CCOc1cc2c(cc1OCC)C(c1c(F)cccc1Cl)CC(=O)N2 (stereo not given),inactive: -4.43%,
CCc1ccccc1NC(=O)c1nc(-c2ccncc2)no1,inactive: 7.13%,
O=C(NCCc1csc2nc(-c3ccc(F)cc3)nn12)c1ccco1,inactive: -11.9%,
COc1cc(C2C(C(=O)Nc3ccccc3)=C(C)Nc3nc(SCc4ccccc4F)nn32)cc(OC)c1OC (stereo not given),inactive: -26.3%,
CCOC(=O)c1c(S(=O)(=O)N2CCC(C(=O)N3CCN(c4cc(C)ccc4C)CC3)CC2)c(C)n(C)c1C,inactive: -0.313%,
Cc1sc2c(c1C)c(=O)n(-c1ccc(Cl)cc1)c(=O)n2Cc1c(F)cccc1Cl,inactive: 2.43%,
CCOc1ccccc1CNS(=O)(=O)c1csc(C(N)=O)c1,inactive: -1.81%,
COC(=O)c1cc(NC(=O)CCc2c(C)nc3cc(-c4ccccc4)nn3c2C)cc(C(=O)OC)c1,inactive: -12.6%,
CC1CCN(S(=O)(=O)c2cc(C(=O)Nc3ccc(Br)cc3F)n(C)c2)CC1,inactive: -5.63%,
O=C(Cn1ncc2c(Cl)cccc21)NCc1cccc(Br)c1,inactive: -2.71%,
O=C(NC1CCCCC1)c1ccc(CSc2nc3cccnc3n2Cc2ccccc2F)cc1,inactive: 0.686%,
Cc1ccc(Cn2c(CCCNC(=O)C3CCCCC3)nc3ccccc32)cc1,inactive: -6.95%,
CC(C)CCNC(=O)c1ccc2c(c1)N(Cc1ccccc1F)C(=O)c1ccccc1S2=O (stereo not given),inactive: -14.5%,
COc1ccccc1OCC(=O)NCC1(N(C)C)CCCCC1,inactive: -2.13%,
Cc1ccc(N2CC(NC(=O)C(=O)c3c[nH]c4ccccc34)CC2=O)cc1 (stereo not given),inactive: -1.27%,
Oc1ccc(NCc2ccc(OCc3ccccc3Cl)cc2)cc1,,active: 16.5 µM
O=C(CSc1nc(=O)n(Cc2cccnc2)c2c1CCC2)Nc1ccc(F)cc1F,inactive: -1.67%,
Cc1ccc(Cc2nc3ccccc3nc2SCC(=O)N2CCCCC2C)cc1 (stereo not given),inactive: -13.5%,

SMILES,"activity change, negative = inhibition",Potency
N#C/C(=C\c1c(Oc2ccc(Br)cc2)nc2ccccn2c1=O)c1nc2ccccc2s1,inactive: -17%,
COC(=O)c1cccc(NC(=O)Nc2cc(C(=O)NCc3cccc(F)c3)ccc2N2CCCC2)c1,inactive: 19.9%,
COc1ccc(N2CCN(C(=O)CS(=O)(=O)c3cccc4nsnc34)CC2)cc1,inactive: -17%,
CC(=O)N1CCc2cc(Br)cc(S(=O)(=O)N3CCN(c4cccc(C)c4)C(C)C3)c21 (stereo not given),inactive: 2.88%,
O=C(NCCc1csc(-c2cccnc2)n1)c1ccc(F)c(F)c1,inactive: -5.54%,
CCCCN1CCc2nc(N3CCN(C)CC3)ncc2C1,inactive: 0%,
COc1ccccc1N1CCN(C(=O)c2cn(C)c3ccc(S(=O)(=O)N4CCOCC4)cc3c2=O)CC1,inactive: -3.15%,
CN(C)c1ccc(CNC(=O)CCCn2ccc3cc(S(=O)(=O)N4CCCC4)ccc32)cc1,inactive: -9.31%,
COc1ccc(CCN2CCC(CNC(=O)c3cnn(-c4ccccc4)c3C3CCN(C(=O)OC(C)(C)C)CC3)CC2)cc1,inactive: 6.66%,
Cc1nn(C(C)C(=O)NC2CCC(C)CC2)c(=O)c2cc3sccc3n12 (stereo not given),inactive: -3.11%,
COc1cccc(N2CCN(S(=O)(=O)c3ccc4c(c3)CCCN4C(C)=O)CC2)c1,inactive: -2.92%,
CCOC(=O)c1c(NC(=O)c2cc(=O)c3ccc(C)cc3o2)sc(C)c1C,inactive: -13.7%,
COc1ccc(Cl)cc1NC(=O)c1cc(C)nn1-c1ccccc1,inactive: -1.99%,
COc1ccc(OC)c(S(=O)(=O)N2CC=C(c3c(C)n(CC(=O)N4CCCC4)c4ccccc34)CC2)c1,inactive: -8.01%,
O=S(=O)(c1ccc(Cl)cc1)c1nnn2c1nc(N1CCCCC1)c1sccc12,inactive: 0.0604%,
Fc1ccccc1-n1ncc2c1ncn1nc(Cc3ccccc3)nc21,inactive: 2.25%,
Cc1ccccc1NC(=O)CN(c1ccc(Cl)cc1Cl)S(=O)(=O)c1ccccc1,inactive: -1.54%,
COc1ccc(-c2nc3sc(CCNC(=O)c4ccccc4C)c(C)n3n2)cc1,inactive: 1.25%,
Cc1cn(C)c(CC(=O)N2CCN(c3ccccc3F)CC2)c1C(=O)O,inactive: -8.32%,
CC(CNC(=O)CCS(=O)(=O)c1ccc2c(c1)oc(=O)n2C)c1ccccc1 (stereo not given),inactive: 4.26%,
Cc1ccc2c(c1)-c1c(c(C(=O)N3CCN(c4cc(Cl)ccc4C)CC3)nn1C)CS2,inactive: 0%,
Cc1cccc(NC(=O)N2CCC(CN3CCOCC3)CC2)c1C,inactive: -10%,
O=S(=O)(NCc1ccccc1Cl)c1ccc(N2CCCCS2(=O)=O)cc1,inactive: -2.18%,
Cc1cccn2c(=O)c3cc(C(=O)N(Cc4ccccc4)C(C)C)sc3nc12,inactive: -10.2%,

SMILES,"activity change, negative = inhibition",Potency
CCCCN(C)CCNC(=O)c1ccc2c(c1)NC(=O)CN2,inactive: 12.7%,
Cc1c(C(=O)NCCc2ccc(S(N)(=O)=O)cc2)sc2nc3n(c(=O)c12)CCCC3,inactive: 8.29%,
COc1ccc(-c2cc(C(F)(F)F)n3nc(C(=O)NCC45CC6CC(CC(C6)C4)C5)cc3n2)cc1OC,inactive: -1%,
Cc1cccc(Cn2c(C)c(CNC3CCCCC3)c(C(=O)O)c2C)c1,inactive: -4.84%,
Cc1cc(Cl)ccc1NC(=O)C1CCN(c2nnc(-n3c(C)ccc3C)s2)CC1,inactive: -4.9%,
CCOC(=O)c1ccccc1NC(=O)N1CCOc2ccc(Cl)cc21,inactive: -12.2%,
CC1CCN(S(=O)(=O)c2ccc3c(c2)N(CC(=O)O)C(=O)CO3)CC1,inactive: 1.16%,
CCc1ccccc1NC(=O)CSc1nc2c(oc3ccccc32)c(=O)n1-c1ccccc1F,inactive: -1.79%,
Cc1ccc(NC(=O)C(=O)NCC(c2cccnc2)N2CCN(Cc3ccccc3)CC2)cc1 (stereo not given),inactive: -0.505%,
Cc1ccc2ccc3cc(C(=O)N4CCN(c5ccccc5)CC4)nc3c2[nH]1,inactive: -5.49%,
CC(=O)Nc1ccc(-c2nnc(SCC(=O)c3ccc([N+](=O)[O-])cc3)o2)cc1,inactive: -17.9%,
Cc1cc(C)c(NC(=O)CSc2nc(-c3ccc(F)cc3)nc3c2Cc2c(CO)cnc(C)c2O3)c(C)c1,inactive: 2.37%,
COc1ccc(S(=O)(=O)N(CC(=O)Nc2cccc(C)c2)c2ccc(C)cc2)cc1OC,inactive: 1.27%,
CCCCSCCCNC(=O)C1CCN(Cc2nc(-c3cccc(Br)c3)oc2C)CC1,inactive: -16.3%,
CCOC(=O)C1=C(CN(CC)Cc2ccccc2)NC(=O)NC1c1ccc(OC(C)C)cc1 (stereo not given),inactive: -2.77%,
COc1ccccc1CNC(=O)c1ccc(N2CCCC2)c(NC(=O)NCc2ccc(F)cc2)c1,inactive: 0%,
CC(C)CN(CCCNC(=O)CN1N=C(c2ccccc2)CCC1=O)CC(C)C,inactive: -10.9%,
CCOc1ccc(CCNC(=O)c2[nH]c3cc(OC)ccc3c2Sc2ccccc2)cc1OCC,inactive: 0.899%,
O=C(Cn1ncc2c3ccccc3n(Cc3ccccc3F)c2c1=O)N1CCCCC1,inactive: 0.393%,
COc1ccc(N2CCN(c3ccc(-c4nc(-c5cccc(C)c5)no4)cc3[N+](=O)[O-])CC2)cc1,inactive: 1.42%,
O=C(NCCC1=CCCCC1)c1ccc2c(c1)N(Cc1cccc(Cl)c1)C(=O)c1ccccc1S2(=O)=O,inactive: -1.96%,
CCOc1ccc(NC(=O)Cn2c(=O)cc(C)c3c(C)nn(-c4cccc(Cl)c4C)c32)cc1,inactive: -11.9%,
CCOc1ccc(S(=O)(=O)c2cn(Cc3ccc(OC)cc3)c3ccc(F)cc3c2=O)cc1,inactive: 2.98%,
CCOc1ccc(C(=O)N2CCN(CCc3ccccn3)CC2)cc1,inactive: -3.93%,

SMILES,"activity change, negative = inhibition",Potency
Cc1nn(-c2ccc(N3CCCC3)nn2)c(C)c1CCC(=O)NCc1ccc(OC(C)C)cc1,inactive: -4.17%,
Cn1c(=O)[nH]c(=O)c2c1nc1n2CCN1c1ccccc1,inactive: -2.35%,
CC(C)c1ccc(NC(=O)CCNS(=O)(=O)c2ccc3c(c2)CCCC(=O)N3)cc1,inactive: 4.13%,
CCOC(=O)CC(NC(=O)CCc1c(C)nc2ncnn2c1C)c1ccc(OC(C)C)cc1 (stereo not given),inactive: -0.907%,
Cc1ccccc1CSc1nc2cccnc2n1Cc1ccc(C(=O)NC2CC2)cc1,inactive: -8%,
CCOc1ccc(Nc2nc(C)c(NC(=O)c3cccc(OC)c3)c(Nc3ccc(OCC)cc3)n2)cc1,inactive: 1.18%,
Cc1ccc(N2CCN(S(=O)(=O)c3nnc(NC(=O)c4ccc(C(C)C)cc4)s3)CC2)cc1,inactive: 0.585%,
CCOc1ccc(NC(=O)CN2C(C(=O)OC)=C(c3ccccc3)c3cc(Cl)ccc3S2(=O)=O)cc1,inactive: 0.693%,
Cc1cc(=O)[nH]c2nnc(SCc3ccc(Cl)cc3)n12,inactive: -0.165%,
COC(=O)C1=C(c2ccccc2)c2ccccc2S(=O)(=O)N1CC(=O)Nc1ccc(OC)cc1OC,inactive: -3.81%,
Cc1ccc(Cl)cc1-n1ncc2c(N3CCC(C)CC3)ncnc21,inactive: -12.9%,
Cc1ccc(CNC(=O)CN2CCN(Cc3ccc(F)cc3)C2=O)cc1,inactive: 19.2%,
O=C(NCc1ccccc1)C1CCN(S(=O)(=O)c2ccc3[nH]c(=O)ccc3c2)CC1,inactive: -4.11%,
COc1ccc(NC(=O)c2c(NCc3cccc(F)c3)sc3c2CCCC3)c(OC)c1,inactive: -3.91%,
Cc1cc2nc(-c3cccc(NC(=O)COc4ccc(Cl)c(C)c4)c3)oc2cc1C,inactive: 2.19%,
Cc1cccc(N(C)S(=O)(=O)c2c(C(=O)N3CCCCCC3)c(C)n(C)c2C)c1,inactive: 11.4%,
COc1ccccc1NC(=O)C1CCN(S(=O)(=O)c2cn(C)cn2)CC1,inactive: 21.7%,
COc1ccccc1-c1cc(NC(=O)COc2ccc(C)c(C)c2)n(-c2ccccc2)n1,inactive: -0.777%,
CCOc1ccc(CCNC(=O)c2cnc3sc(N4CCCCCC4)nn3c2=O)cc1,inactive: 9.51%,
COc1ccc(OC)c(NC(=O)CN2CCCN(Cc3cc(C)ccc3C)S2(=O)=O)c1,inactive: -6.84%,
COc1ccc(-c2cc(C(F)(F)F)nc(SCC(=O)NCc3ccc(Cl)cc3)n2)cc1,inactive: -6.39%,
Cc1cccc2c1-c1sc(C(=O)N3CCN(c4cccc(Cl)c4)CC3)cc1CO2,inactive: -2.26%,
CC1=C(C(=O)Nc2ccc(F)cc2F)C2(CCCCCC2)OC1=O,inactive: -7%,
